For the experiment, the system named is Plasmodium falciparum NF54 stage V gametocytes. Kind of experiment: viability index relative to DMSO control (fraction); higher = less gametocyte killing. The settings on record: 2.5 µM, incubation time: 72 h. An outline of the steps: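 In 1,536-well plates, 10 µl of serum-free medium holding P. falciparum NF54 stage V gametocytes (0.75% gametocytemia, 1.25% hematocrit) received compound at 2.5 µM for 72 hr at 37°C in low oxygen. After one to two hours with 3 µl of 2.5 µM MitoTracker Red CMXRos containing 0.13% saponin, red particles of 20–70 µm2 were counted in a single field per well. Viability index is reported as the particle count over the plate mean of wells treated with solvent only.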

[1] abbreviates: library set: Broad Institute DOS.

± gives the uncertainty stated by the source. The full ranking holds about 9,900 compounds; the median of “viability index relative to DMSO control” is about 1, and the lowest 2% start at about 0.85. Some of the results follow.

Take `CO[C@H]1CN(C)C(=O)c2cc(NS(C)(=O)=O)ccc2OC[C@@H](C)N(Cc2cncnc2)C[C@H]1C`: the viability index under setting [1] is 1.058 ± 0.0054.
As for `N#C[C@H]1[C@@H](c2ccccc2C2=CCCC2)[C@H](CO)N1C(=O)c1cccc(F)c1`, under setting [1], the viability index amounted to 1.12 ± 0.075.
Consider `CC(C)N(C[C@H]1[C@H](c2ccccc2)[C@H](CO)N1S(C)(=O)=O)C(=O)CN(C)C`, for which the viability index under setting [1] came out at 1 ± 0.015.
The same measure, in the same setting: the result for `Cc1ccccc1-c1cnc2c(c1)C(=O)N([C@@H](C)CO)C[C@@H](C)[C@H](CN(C)Cc1ccccc1F)O2` reads 1.06 ± 0.051.
On the same count and under the same terms, the value for `COC(=O)[C@@H]1[C@@H](CO)[C@@H]2Cn3c(ccc(-c4ccncc4)c3=O)[C@@H]2N1Cc1ccccc1F` was 1.06 ± 0.018; that for `COCC(=O)N1[C@@H](C#N)[C@@H](c2ccccc2-c2ccccc2F)[C@@H]1CO` was 1.12 ± 0.065.
On the same count and under the same terms, the result for `C[C@@H]1CCCCO[C@@H](CN(C)S(=O)(=O)c2ccccc2)[C@@H](C)CN([C@@H](C)CO)C(=O)c2cc(NC(=O)Nc3ccc4c(c3)OCO4)ccc2O1` reads 0.983 ± 0.084.
For `COCC(=O)Nc1ccc2c(c1)[C@H]1C[C@@H](CC(=O)N[C@H](C)c3ccccc3)O[C@@H](CO)[C@H]1O2`, the viability index under setting [1] turned out to be 1.05 ± 0.075.
On the same count and under the same terms, the value for `O=C(C[C@H]1CC[C@H]2[C@@H](COC[C@@H](O)CN2Cc2nccs2)O1)N1CCC(Cc2ccccc2)CC1` was 1.0462 ± 4.2e-05; that for `O=C(NCC[C@H]1CC[C@@H](NC(=O)c2ccccc2F)[C@H](CO)O1)c1cnccn1` was 0.985 ± 0.093.
Same read-out and setting: the value for `C[C@H](CO)N1C[C@H](C)[C@H](CN(C)C(=O)Nc2cccc3ccccc23)Oc2ccc(NS(=O)(=O)c3cn(C)cn3)cc2C1=O` was 0.934 ± 0.099; that for `C[C@@H]1CN([C@H](C)CO)C(=O)c2ccccc2-c2ccccc2CO[C@@H]1CN(C)S(=O)(=O)c1cccs1` was 0.984 ± 0.08; that for `C/C=C/c1ccc([C@H]2[C@@H](CO)N[C@@H]2CN(CC(C)C)C(=O)c2ccccn2)cc1` was 0.916 ± 0.018.
Compound `C[C@H]1CN([C@@H](C)CO)C(=O)CCCn2nncc2CO[C@@H]1CN(C)C(=O)CCC(F)(F)F` came in with a viability index under setting [1] of 1.057 ± 0.0082.
Still for that read-out and setting: the value for `CN(C)CC(=O)N1[C@@H](C#N)[C@@H](c2ccccc2-c2ccccc2F)[C@@H]1CO` was 1.14 ± 0.074; that for `Cc1noc(C)c1NC(=O)N1C[C@@H](O)COC[C@@H]2O[C@H](CC(=O)N[C@@H]3CCN(Cc4ccccc4)C3)CC[C@H]21` was 1.1 ± 0.021; that for `CC(C)(C)[S@@](=O)N1Cc2cc(C(=O)NC3CCC3)nc(-c3cccc(Br)c3)c2[C@H]1CCO` was 0.994 ± 0.058.
Still for that read-out and setting: the result for `O=C(c1cccc(F)c1)N1CCCCN2[C@H](CO)[C@H](c3ccc(C#CC4(O)CCCC4)cc3)[C@H]2C1` reads 1.01 ± 0.037; that for `CCC(=O)N1[C@@H]2Cn3c(ccc(-c4ccccc4F)c3=O)[C@H]1[C@@H](C(=O)NC1CCC1)[C@@H]2CO`, 1.1 ± 0.018; that for `CCCNC(=O)C[C@@H]1CC[C@H]2[C@@H](COC[C@H](O)CN2Cc2ccncc2)O1`, 1.06 ± 0.04.
On the same count and under the same terms, the value for `O=C(c1ccccc1F)N1CC[C@@H]2[C@@H](CO)Nc3ccc(Br)cc3[C@@H]21` was 1.08 ± 0.091; that for `CCCC(=O)Nc1ccc2c(c1)OC[C@@H](C)N(S(=O)(=O)c1cn(C)cn1)C[C@@H](C)[C@H](OC)CN(C)C2=O` was 1.07 ± 0.12; that for `CN(C)CC(=O)N1[C@H](CO)[C@@H](c2ccc(C#CC3CCCCC3)cc2)[C@@H]1C#N` was 1.11 ± 0.085.
Under setting [1], `C[C@H](CO)N1C[C@H](C)[C@@H](CN(C)C(=O)Nc2ccccc2C(F)(F)F)OCc2cnnn2CCCC1=O` yielded a viability index of 1.085 ± 0.0058.
The same measure, in the same setting: the value for `O=C(Cc1ccncc1)N1CC(=O)N2[C@H](C1)[C@@H](c1ccc(Br)cc1)[C@@H]2CO` was 1.07 ± 0.024; that for `OC[C@H]1N[C@@H](CNCC2CCC2)[C@@H]1c1ccc(C2=CCCCC2)cc1` was 1.03 ± 0.028.
In turn, `O=C1N[C@@H](Cc2ccccc2)COCc2cn(nn2)CC[C@@H]1Cc1cccc(F)c1` returned a viability index under setting [1] of 0.941 ± 0.099.
Same read-out and setting: the result for `C[C@@H]1CCCCO[C@H](CN(C)C(=O)Nc2ccc(C(F)(F)F)cc2)[C@@H](C)CN([C@@H](C)CO)C(=O)c2cc(NS(=O)(=O)c3cn(C)cn3)ccc2O1` reads 1.09 ± 0.019.
Same read-out and setting: the result for `C/C=C/c1ccc([C@@H]2[C@H]3CN(S(=O)(=O)c4ccc(OC)cc4)CCCCN3[C@H]2CO)cc1` reads 1.05 ± 0.022; that for `COc1cccc(-c2ccccc2[C@H]2[C@@H](CO)N(C(=O)Cc3ccccc3)[C@H]2C#N)c1`, 1.04 ± 0.19.
Same read-out and setting: the value for `Cc1cccc(S(=O)(=O)N2C[C@@H](O)COC[C@H]3O[C@@H](CC(=O)Nc4ccccc4)CC[C@@H]32)c1` was 1.12 ± 0.027; that for `COC(=O)C[C@@H]1CC[C@H]2[C@H](COc3ccc(NS(=O)(=O)c4ccc(C)cc4)cc3C(=O)N2C)O1` was 1.01 ± 0.023; that for `COc1ccccc1C(=O)Nc1ccc2c(c1)C(=O)N(C)C[C@@H](OC)[C@H](C)CN(C(C)=O)[C@@H](C)CO2` was 1.05 ± 0.041.
`O=C(C[C@H]1CC[C@H]2[C@@H](COC[C@@H](O)CN2Cc2ccc(C(F)(F)F)cc2)O1)N1CCc2ccccc2C1` had a viability index under setting [1] of 0.968 ± 0.024.
Compound `C[C@@H]1CN([C@@H](C)CO)C(=O)c2ccccc2-c2ccccc2CO[C@H]1CN(C)C(=O)c1cc(Cl)cc(Cl)c1` yielded a viability index under setting [1] of 0.937 ± 0.19.
The same measure, in the same setting: the value for `CCC(=O)N1[C@H](CO)[C@@H](c2ccc(-c3cccc(OC)c3)cc2)C12CN(C(C)=O)C2` was 1.12 ± 0.012; that for `C[C@@H]1CN([C@H](C)CO)C(=O)c2ccccc2-c2ccccc2CO[C@@H]1CN(C)C(=O)Nc1ccnc(N2CCOCC2)c1` was 0.975 ± 0.044; that for `Cc1ccc(S(=O)(=O)Nc2ccc3c(c2)C(=O)N([C@H](C)CO)C[C@H](C)[C@@H](CN(C)S(=O)(=O)c2cccs2)OCCCC[C@@H](C)O3)cc1` was 1.17 ± 0.045.
Still for that read-out and setting: the value for `CCCNC(=O)N(C)C[C@H]1Oc2cc(C#C[C@@H](C)O)ccc2S(=O)(=O)N([C@@H](C)CO)C[C@@H]1C` was 0.987 ± 0.014; that for `CCCC(=O)N1C[C@H]2[C@@H](c3ccccc31)[C@@H](CO)N2C(=O)Nc1ccc(F)cc1` was 0.983 ± 0.045.
In turn, `CN1C(=O)c2cc(NC(=O)c3cnccn3)ccc2OC[C@H]2O[C@@H](CC(=O)N[C@@H]3CCN(Cc4ccccc4)C3)CC[C@@H]21` yielded a viability index under setting [1] of 1.08 ± 0.044.
The same measure, in the same setting: the result for `COCC#Cc1ccc([C@H]2[C@@H](CO)N3C(=O)CN(C(=O)C4CCCCC4)C[C@H]23)cc1` reads 1.03 ± 0.011; that for `C[C@H](NC(=O)C[C@H]1CC[C@@H]2[C@@H](COc3ccc(NS(=O)(=O)c4ccc(Cl)cc4)cc3C(=O)N2C)O1)c1ccccc1`, 0.97 ± 0.023.
The same measure, in the same setting: the result for `COc1ccc2c3c([C@@H](CO)N(C[C@]33CCN(Cc4cccc(F)c4)CC3)C(=O)C3CC3)n(C)c2c1` reads 0.997 ± 0.1; that for `CC(C)CC#Cc1ccc([C@@H]2[C@@H](CO)N3C(=O)CN(C(=O)c4ccccn4)C[C@H]23)cc1`, 1.09 ± 0.048; that for `CCC(=O)N1C[C@@]2(C1)CN(Cc1cccc(Cl)c1)[C@@H](CO)c1[nH]c3cc(OC)ccc3c21`, 1.01 ± 0.063.
Same read-out and setting: the result for `CCC(=O)N1CC[C@H]2[C@@H]1c1cc(-c3ccc(C#N)cc3)ccc1N(C)[C@H]2CO` reads 1.13 ± 0.044.
`CO[C@H](CN(C)Cc1cc(F)ccc1F)[C@H](C)CN(C(=O)Nc1ccc(C(F)(F)F)cc1)[C@H](C)CO`: the viability index under setting [1] stood at 1.12 ± 0.046.
The same measure, in the same setting: the value for `C[C@@H]1CN([C@@H](C)CO)C(=O)Cc2cc(NC(=O)CCCCCC(=O)Nc3ccccc3N)ccc2O[C@@H]1CN(C)S(=O)(=O)c1cccs1` was 0.9793 ± 0.0018.
Under setting [1], `CCS(=O)(=O)N1C[C@@]2(C1)CN([C@@H](CO)c1c2c2ccc(OC)cc2n1C)C(=O)c1ccc(F)cc1` registered a viability index of 0.92 ± 0.1.
On the same count and under the same terms, the value for `COc1ccc(-c2ccc([C@@H]3[C@@H](CO)N(C(=O)NC(C)C)[C@H]3C#N)cc2)cc1` was 1.05 ± 0.08; that for `O=C(c1ccc2c(c1)OCO2)N1C[C@H]2[C@@H](c3ccccc31)[C@H](CO)N2C(=O)CC1CC1` was 1 ± 0.081; that for `CCS(=O)(=O)N(C)C[C@@H]1N[C@H](CO)[C@@H]1c1ccc(-c2ccccc2F)cc1` was 1.05 ± 0.031.
Still for that read-out and setting: the result for `COc1ccc(CNC(=O)C[C@@H]2C=C[C@@H](NC(=O)c3cccc(F)c3)[C@@H](CO)O2)cc1` reads 1 ± 0.096.
Same read-out and setting: the result for `CCS(=O)(=O)NCC[C@@H]1CC[C@@H](NC(=O)Nc2cc(Cl)cc(Cl)c2)[C@@H](CO)O1` reads 1.11 ± 0.15; that for `CO[C@H]1CN(C)C(=O)c2ccc(NC(=O)NC(C)C)cc2OC[C@@H](C)N(Cc2ccc(-c3ccccn3)cc2)C[C@@H]1C`, 1.078 ± 0.0022.
With `C[C@H](CO)N1C[C@H](C)[C@H](CN(C)Cc2ccc(C(=O)Nc3ccccc3N)cc2)Oc2ccc(NC(=O)Cn3cnnn3)cc2C1=O`, the viability index under setting [1] was determined as 1.02 ± 0.014.
Same read-out and setting: the result for `CC(=O)N(Cc1cccc(F)c1)C[C@@H]1[C@@H](c2ccccc2)[C@@H](CO)N1C(C)=O` reads 0.9309 ± 0.0049.
The same measure, in the same setting: the result for `CC[C@H]1C/C=C\C[C@H](CC)NC(=O)[C@@H](C)CC(=O)N1` reads 1 ± 0.013.
Where the note is “library set: Broad Institute Blood Stage”, `C[C@H]1CN([C@@H](C)CO)C(=O)c2c(c3ccccc3n2C)-c2ccccc2CO[C@H]1CN(C)S(=O)(=O)c1ccc(Cl)cc1` displayed a viability index of 0.738 ± 0.023.
Compound `CO[C@H]1CN(C)C(=O)c2cc(NS(=O)(=O)c3cn(C)cn3)ccc2OC[C@H](C)NC[C@@H]1C` displayed a viability index under setting [1] of 0.955 ± 0.082.
Same read-out and setting: the value for `O=C(C[C@H]1CC[C@@H]2[C@H](COC[C@H](O)CN2Cc2ccc(F)cc2)O1)NCCc1ccccc1` was 1.04 ± 0.039; that for `CCS(=O)(=O)Nc1ccc2c(c1)C(=O)N(C)[C@@H]1CC[C@@H](CC(=O)NC3CCCCC3)O[C@H]1CO2` was 0.978 ± 0.046.
Still for that read-out and setting: the result for `CN1c2ccc(Br)cc2[C@@H]2[C@@H](CCN2C(=O)Cc2ccccc2)[C@H]1CO` reads 1.12 ± 0.026; that for `O=C(C[C@@H]1CC[C@@H]2NC[C@H](O)COC[C@H]2O1)NC1Cc2ccccc2C1`, 1.02 ± 0.051.
On the same count and under the same terms, the value for `COc1ccc2c3c([C@H](CO)N(C[C@]33CCN(CC3)C(=O)c3ccncc3)C(=O)C3CCOCC3)n(C)c2c1` was 1.041 ± 0.0015; that for `C[C@H](CO)N1C[C@H](C)[C@@H](CN(C)Cc2ccncc2)Oc2ccc(NS(=O)(=O)c3ccc(F)cc3)cc2CC1=O` was 0.96438 ± 0.00037; that for `C[C@H]1CN([C@@H](C)CO)C(=O)c2ccccc2-c2ccccc2CO[C@@H]1CN(C)S(=O)(=O)c1cn(C)cn1` was 1.04 ± 0.048.
Take `COc1cccc(CN2C[C@@]3(C2)CN([C@H](CO)c2[nH]c4cc(OC)ccc4c32)C(=O)C2CC2)c1`: the viability index under setting [1] worked out at 1.06 ± 0.16.
On the same count and under the same terms, the value for `O=C(C[C@H]1CC[C@H]2[C@@H](COC[C@H](O)CN2CC2CCOCC2)O1)NCC1CCCCC1` was 1.06 ± 0.075.
